Molecules are shown by their SMILES. “And” between values parts separate entries of the source, which are not always exact repeats. Identical values can stand only once. Counter-ions that a name gives are not always drawn. Whole data set: some 1,900 compounds, median “cell viability of compound + 1 nM pemigatinib relative to pemigatinib-only (DMSO) wells” near 0.95, cut for the lowest 2% near 0.22. The list shows a part of the results.

The test system of the assay is PDC-DUC18828. Kind of assay: cell viability of compound + 1 nM pemigatinib relative to pemigatinib-only (DMSO) wells (fraction); PDC-DUC18828 is a patient-derived cholangiocarcinoma cell line; higher = less growth inhibition. Particulars: first compound 1 µM; pemigatinib concentration 1 nM; 72 h. On the procedure: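 Selleck Bioactive library screen in the patient-derived FGFR2 fusion-positive ICC cell line PDC-DUC18828 (500 cells/well). Each compound was tested at 1 uM with 1 nM pemigatinib, in triplicate, for 72 h. Viability was read by CellTiter-Glo and normalised to plate DMSO controls. Value is the paper's averaged normalised viability.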
Consider `CN(c1ncccc1CNc1nc(Nc2ccc3c(c2)CC(=O)N3)ncc1C(F)(F)F)S(C)(=O)=O` + CCN1C(=O)N(c2c(F)c(OC)cc(OC)c2F)Cc2cnc3[nH]c(CN4CCOCC4)cc3c21 [pemigatinib], for which the cell viability was 0.954 and 0.871 and 0.925.
With `CCc1ccc(OCc2ccccc2C(=O)Nc2ccc3nc(C)cc(N)c3c2)cc1` + CCN1C(=O)N(c2c(F)c(OC)cc(OC)c2F)Cc2cnc3[nH]c(CN4CCOCC4)cc3c21 [pemigatinib], the cell viability came to 0.995.
The value for `Cn1nc(C(C)(C)C)cc1C(=O)N[C@@H](Cc1cccc(Cl)c1)C(=O)NCC#N` [Cathepsin Inhibitor 1] + CCN1C(=O)N(c2c(F)c(OC)cc(OC)c2F)Cc2cnc3[nH]c(CN4CCOCC4)cc3c21 [pemigatinib] was 0.907; that for `CN(C)CCc1c[nH]c2ccc(CS(=O)(=O)N3CCCC3)cc12` [Almotriptan Malate] + CCN1C(=O)N(c2c(F)c(OC)cc(OC)c2F)Cc2cnc3[nH]c(CN4CCOCC4)cc3c21 [pemigatinib] was 0.983.
For `CCCCc1ncc(/C=C(\Cc2cccs2)C(=O)O)n1Cc1ccc(C(=O)O)cc1` [Eprosartan Mesylate] + CCN1C(=O)N(c2c(F)c(OC)cc(OC)c2F)Cc2cnc3[nH]c(CN4CCOCC4)cc3c21 [pemigatinib], the cell viability came out at 0.975.
The value for `CN1CCN2c3ccccc3Cc3ccccc3C2C1` (centres undefined) [Mianserin HCl] + CCN1C(=O)N(c2c(F)c(OC)cc(OC)c2F)Cc2cnc3[nH]c(CN4CCOCC4)cc3c21 [pemigatinib] was 1.04; that for `CN1CCCN(C(=O)c2cccc(-c3ccc(/C=C4/C(=O)Nc5ccc(Cl)cc54)o3)c2)CC1` + CCN1C(=O)N(c2c(F)c(OC)cc(OC)c2F)Cc2cnc3[nH]c(CN4CCOCC4)cc3c21 [pemigatinib] was 0.587.
The value for `CCCCCCCCOc1ccccc1C(=O)Nc1ccc(C(=O)OCC[N+](C)(CC)CC)cc1` [Otilonium Bromide] + CCN1C(=O)N(c2c(F)c(OC)cc(OC)c2F)Cc2cnc3[nH]c(CN4CCOCC4)cc3c21 [pemigatinib] was 0.927; that for `O=C1CC[C@@H](C(=O)N2CSC[C@H]2C(=O)O)N1` [Pidotimod] + CCN1C(=O)N(c2c(F)c(OC)cc(OC)c2F)Cc2cnc3[nH]c(CN4CCOCC4)cc3c21 [pemigatinib] was 0.818; that for `Oc1c(Cl)cc(Cl)c2cccnc12` [Chloroxine] + CCN1C(=O)N(c2c(F)c(OC)cc(OC)c2F)Cc2cnc3[nH]c(CN4CCOCC4)cc3c21 [pemigatinib] was 0.988.
The figure for `c1ccc(-c2ccc(C(c3ccccc3)n3ccnc3)cc2)cc1` (centres undefined) [Bifonazole] + CCN1C(=O)N(c2c(F)c(OC)cc(OC)c2F)Cc2cnc3[nH]c(CN4CCOCC4)cc3c21 [pemigatinib] is 0.889; for `COc1ccc(Cl)cc1NC(=O)Nc1cc(C)nc2ccccc12` + CCN1C(=O)N(c2c(F)c(OC)cc(OC)c2F)Cc2cnc3[nH]c(CN4CCOCC4)cc3c21 [pemigatinib] it is 0.959.
Consider `CN(C)CCC(c1ccc(Br)cc1)c1ccccn1` (centres undefined) [Brompheniramine hydrogen maleate] + CCN1C(=O)N(c2c(F)c(OC)cc(OC)c2F)Cc2cnc3[nH]c(CN4CCOCC4)cc3c21 [pemigatinib], for which the cell viability was 0.949.
As for `O=C(Nc1cccnc1)c1cc(-c2ccnc(F)c2)ccc1OCc1ccccc1` + CCN1C(=O)N(c2c(F)c(OC)cc(OC)c2F)Cc2cnc3[nH]c(CN4CCOCC4)cc3c21 [pemigatinib], the cell viability is 0.914.
The figure for `CCC1(c2ccccc2)C(=O)NCNC1=O` [Primidone] + CCN1C(=O)N(c2c(F)c(OC)cc(OC)c2F)Cc2cnc3[nH]c(CN4CCOCC4)cc3c21 [pemigatinib] is 0.993; for `CCCCc1oc2ccc(NS(C)(=O)=O)cc2c1C(=O)c1ccc(OCCCN(CCCC)CCCC)cc1` [Dronedarone HCl] + CCN1C(=O)N(c2c(F)c(OC)cc(OC)c2F)Cc2cnc3[nH]c(CN4CCOCC4)cc3c21 [pemigatinib] it is 1.02.
The figure for `COc1cc(Nc2c(C#N)cnc3cc(OCCCN4CCN(C)CC4)c(OC)cc23)c(Cl)cc1Cl` [Bosutinib (SKI-606)] + CCN1C(=O)N(c2c(F)c(OC)cc(OC)c2F)Cc2cnc3[nH]c(CN4CCOCC4)cc3c21 [pemigatinib] is 0.762.
The figure for `Nc1ncnc2c1ncn2[C@@H]1O[C@H](CO)[C@@H](O)[C@@H]1O` [Vidarabine] + CCN1C(=O)N(c2c(F)c(OC)cc(OC)c2F)Cc2cnc3[nH]c(CN4CCOCC4)cc3c21 [pemigatinib] is 0.988; for `CC1CCN(CC[C@H]2CCCN2S(=O)(=O)c2cccc(O)c2)CC1` + CCN1C(=O)N(c2c(F)c(OC)cc(OC)c2F)Cc2cnc3[nH]c(CN4CCOCC4)cc3c21 [pemigatinib] it is 0.924.
Take `C[C@@](Cc1ccc(O)c(O)c1)(NN)C(=O)O` [Carbidopa] + CCN1C(=O)N(c2c(F)c(OC)cc(OC)c2F)Cc2cnc3[nH]c(CN4CCOCC4)cc3c21 [pemigatinib]: the cell viability turned out to be 0.983.
The figure for `C=CC(=O)Nc1cccc(Oc2nc(Nc3ccc(N4CCN(C)CC4)cc3)ncc2Cl)c1` + CCN1C(=O)N(c2c(F)c(OC)cc(OC)c2F)Cc2cnc3[nH]c(CN4CCOCC4)cc3c21 [pemigatinib] is 0.608.
Regarding `CCOc1nc2cccc(C(=O)O)c2n1Cc1ccc(-c2ccccc2-c2nnn[nH]2)cc1` [Candesartan] + CCN1C(=O)N(c2c(F)c(OC)cc(OC)c2F)Cc2cnc3[nH]c(CN4CCOCC4)cc3c21 [pemigatinib], the cell viability turned out to be 1.1.
The figure for `Oc1cc2c(cc1O)C(c1ccccc1)CNCC2` (centres undefined) + CCN1C(=O)N(c2c(F)c(OC)cc(OC)c2F)Cc2cnc3[nH]c(CN4CCOCC4)cc3c21 [pemigatinib] is 0.944.
The value for `Cn1c(=O)c2c(ncn2CC2OCCO2)n(C)c1=O` [Doxofylline] + CCN1C(=O)N(c2c(F)c(OC)cc(OC)c2F)Cc2cnc3[nH]c(CN4CCOCC4)cc3c21 [pemigatinib] was 0.967; that for `COCC(=O)NC/C=C/c1ccc2ncnc(Nc3ccc(Oc4ccc(C)nc4)c(C)c3)c2c1` + CCN1C(=O)N(c2c(F)c(OC)cc(OC)c2F)Cc2cnc3[nH]c(CN4CCOCC4)cc3c21 [pemigatinib] was 0.973.
For `COc1cccc(C=NCCN=Cc2cccc(OC)c2[O-])c1[O-].[Cl-].[Mn+3]` + CCN1C(=O)N(c2c(F)c(OC)cc(OC)c2F)Cc2cnc3[nH]c(CN4CCOCC4)cc3c21 [pemigatinib], the cell viability amounted to 0.943.
The figure for `CC(C)NC[C@@H](C(=O)N1CCN(c2ncnc3c2[C@H](C)C[C@H]3O)CC1)c1ccc(Cl)cc1` + CCN1C(=O)N(c2c(F)c(OC)cc(OC)c2F)Cc2cnc3[nH]c(CN4CCOCC4)cc3c21 [pemigatinib] is 0.87; for `Cc1ccc([C@@H]2O[C@H](CO)[C@@H](O)[C@H](O)[C@H]2O)cc1Cc1ccc(-c2ccc(F)cc2)s1` [Canagliflozin] + CCN1C(=O)N(c2c(F)c(OC)cc(OC)c2F)Cc2cnc3[nH]c(CN4CCOCC4)cc3c21 [pemigatinib] it is 0.906; for `CC(C)(C)c1cc(C(C)(C)C)c(NC(=O)c2c[nH]c3ccccc3c2=O)cc1O` [Ivacaftor (VX-770)] + CCN1C(=O)N(c2c(F)c(OC)cc(OC)c2F)Cc2cnc3[nH]c(CN4CCOCC4)cc3c21 [pemigatinib] it is 0.904.
The value for `CCOC(=O)[C@H]1O[C@@H]1C(=O)N[C@@H](CC(C)C)C(=O)NCCC(C)C` [Aloxistatin] + CCN1C(=O)N(c2c(F)c(OC)cc(OC)c2F)Cc2cnc3[nH]c(CN4CCOCC4)cc3c21 [pemigatinib] was 0.992; that for `CCCCNc1ncc(C(=O)NCc2ccc(-n3ccnc3)cc2)c(NC2CCC(O)CC2)n1` (centres undefined) + CCN1C(=O)N(c2c(F)c(OC)cc(OC)c2F)Cc2cnc3[nH]c(CN4CCOCC4)cc3c21 [pemigatinib] was 0.849.
The figure for `C=CC(=O)Nc1cccc(Sc2nc(Nc3ccc(N4CCN(C)CC4)cc3)ncc2Cl)c1` + CCN1C(=O)N(c2c(F)c(OC)cc(OC)c2F)Cc2cnc3[nH]c(CN4CCOCC4)cc3c21 [pemigatinib] is 0.75.
Take `Cc1nc2c([nH]1)-c1ccccc1N(C(=O)c1ccc(NC(=O)c3ccccc3-c3ccccc3)cc1)CC2` [Conivaptan HCl] + CCN1C(=O)N(c2c(F)c(OC)cc(OC)c2F)Cc2cnc3[nH]c(CN4CCOCC4)cc3c21 [pemigatinib]: the cell viability turned out to be 1.04.
The value for `COc1ccc2c(Oc3ccc(NC(=O)c4c(C)n(CC(C)(C)O)n(-c5ccccc5)c4=O)nc3)ccnc2c1` + CCN1C(=O)N(c2c(F)c(OC)cc(OC)c2F)Cc2cnc3[nH]c(CN4CCOCC4)cc3c21 [pemigatinib] was 0.827; that for `NCCCCCC(=O)O` [(6-)ε-Aminocaproic acid] + CCN1C(=O)N(c2c(F)c(OC)cc(OC)c2F)Cc2cnc3[nH]c(CN4CCOCC4)cc3c21 [pemigatinib] was 0.965; that for `CC(C)CCNC(=O)[C@H](CC(C)C)NC(=O)[C@H]1O[C@@H]1C(=O)O` [Loxistatin Acid (E-64C)] + CCN1C(=O)N(c2c(F)c(OC)cc(OC)c2F)Cc2cnc3[nH]c(CN4CCOCC4)cc3c21 [pemigatinib] was 1.02.
The figure for `c1ccc2c(CCNc3ccc(Nc4ccncc4)cc3)c[nH]c2c1` + CCN1C(=O)N(c2c(F)c(OC)cc(OC)c2F)Cc2cnc3[nH]c(CN4CCOCC4)cc3c21 [pemigatinib] is 0.994.
The value for `Cc1csc(-c2nnc(Nc3ccc(Oc4ncccc4-c4ccnc(N)n4)cc3)c3ccccc23)c1` + CCN1C(=O)N(c2c(F)c(OC)cc(OC)c2F)Cc2cnc3[nH]c(CN4CCOCC4)cc3c21 [pemigatinib] was 0.604; that for `Nc1nc2c(ncn2COC(CO)CO)c(=O)[nH]1` [Ganciclovir] + CCN1C(=O)N(c2c(F)c(OC)cc(OC)c2F)Cc2cnc3[nH]c(CN4CCOCC4)cc3c21 [pemigatinib] was 0.967.
